Experimental data: PubChem BioAssay AID743279 (National Center for Advancing Translational Sciences (NCATS), 2014)
Screen size: about 360,000 compounds; about 17,000 (4.7%) were called active. Inconclusive results, whose numbers are uncertain, are shown with a selection of clear calls. Rule as the data show it: active = activity change below about -50%; inconclusive = mostly about -30% to -49%; inactive = weaker than that.

Experiment: qHTS for Inhibitors of Inflammasome Signaling: IL-1-beta AlphaLISA Primary Screen
Settings: THP-1 LPS/ATP IL-1B secretion, 16 h; at 57.5 µM, hits give low values
Procedure, shortened: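 Secreted IL-1B measured by AlphaLISA bead assay after 16 h compound exposure of THP-1 cells; compounds (final up to 57.5 uM) added 1 h before LPS (250 ng/mL) and ATP (1.25 mM) stimulation; lower signal means less secretion.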
% is scaled to controls: 0 for no effect and ±100 for the full control effect.

Row | SMILES | activity change
1 | COc1ccc(N2CCC(CNC(=S)Nc3ccc(C)cc3C)C2)cc1 (stereo not given) | inconclusive: -35.9%
2 | CC(=O)C1=CCC(c2ccccc2)N(S(=O)(=O)c2ccc(Cl)cc2)C1 (stereo not given) | inconclusive: -41.4%
3 | COC(=O)CC1C(=O)NCCN1Cc1cn(-c2ccc(C)cc2)nc1-c1cccc(C)c1 (stereo not given) | inconclusive: -47%
4 | COc1cc(CNCc2c[nH]c3ccccc23)cc(OC)c1 | active: -83.8%
5 | C=CCN(C(=O)CSc1nc2c(sc3ccccc32)c(=O)n1CCN(CC)CC)c1ccccc1 | active: -79.8%
6 | CCOC(=O)c1cc(-c2ccccc2)n(CCC(=O)N2CCN(c3ccccc3OC)CC2)c1C | inconclusive: -32.6%
7 | Cc1cccc(NC(=O)CSCC(=O)Nc2ccccc2N2CCCC2)c1 | active: -57.1%
8 | Cc1ccc2[nH]c(=O)c(CN(Cc3ccccc3)Cc3nnnn3C3CCCC3)cc2c1 | active: -71.7%
9 | Nc1cc(N)nc(SCC(=O)NC(=O)NC2CCCC2)n1 | inactive: 9.95%
10 | COc1ccc2nc(SCC(=O)NC3(C#N)CCCCC3)[nH]c2c1 | inactive: -7.6%
11 | Cc1cccc(NC(=S)N(CCN(C)C)Cc2cc3cc(C)ccc3[nH]c2=O)c1 | active: -65.5%
12 | OCC[C@H]1C[C@H](O)[C@@H](O)[C@@]2(Cc3ccccc3O2)O1 | inactive: 26%
13 | CCNC(COC(=O)c1ccc([N+](=O)[O-])cc1)C1CCCCC1 (stereo not given) | inactive: 15.7%
14 | Cc1ccccc1NS(=O)(=O)c1csc(C(N)=O)c1 | inactive: 13.1%
15 | Cc1ccccc1OCCNC(=O)CSc1ccc(C(F)(F)F)cc1[N+](=O)[O-] | inconclusive: -31.4%
16 | O=C(NCc1ccco1)c1sc(=S)n2c1[nH]c(=O)c1ccccc12 | active: -59.2%
17 | Cc1ccc(CNC(=O)COc2ccc(C(=O)c3ccc(F)cc3)cc2)cc1 | inconclusive: -36.9%
18 | CCOC(=O)c1sc2ncn(CC(=O)Nc3cc(C)on3)c(=O)c2c1C | inactive: -10%
19 | Brc1ccc(Br)c2cnccc12 | inactive: 13.8%
20 | CC(=O)Nc1cccc(OCC(=O)Nc2cccc(S(=O)(=O)N3CCCC3)c2)c1 | inactive: 11.5%
21 | CCOC(=O)C1=C(COc2ccccc2)NC(=O)NC1c1cccc([N+](=O)[O-])c1 (stereo not given) | inconclusive: -41.7%
22 | Brc1ccc2ncnc(NCc3ccccc3)c2c1 | inconclusive: -42.5%

Row | SMILES | activity change
23 | O=C(NCC(=O)N1CCN(Cc2c(F)cccc2Cl)CC1)c1cccs1 | inactive: -13.9%
24 | COc1c(O)cc(O)c2c(=O)cc(-c3ccccc3)oc12 | inconclusive: -46%
25 | COc1ccc(C(=O)Nc2sc3c(c2C(=O)NCc2ccco2)CCCC3)cc1OC | inconclusive: -49.4%
26 | C=CCC[C@@H](Cc1ccc(F)cc1)C(=O)OC[C@@H](NC(=O)[C@@H](CC=C)CC(=O)N[C@@H](CO)Cc1ccccc1)C(C)(C)C | inconclusive: -46.8%
27 | Cc1cccc(C2c3[nH]c4ccccc4c3CCN2C(=O)c2cc(C(C)C)nc(N)n2)n1 (stereo not given) | inconclusive: -32.3%
28 | O=C(Nc1cnn(Cc2ccc(Cl)cc2)c1)c1ccc([N+](=O)[O-])cc1 | inconclusive: -44.1%
29 | O=C(NC(C(=O)N/N=C/c1c2ccccc2cc2ccccc12)c1n[nH]c(=O)c2ccccc12)c1ccccc1 (stereo not given) | inconclusive: -48.2%
30 | COc1cccc(NC(=O)c2ccc3c(c2)CCN3S(C)(=O)=O)c1 | inconclusive: -39%
31 | CC(C)Nc1nc(-c2ccccc2)nc(-n2ccnc2)n1 | inconclusive: -47.2%
32 | O=C(Cc1ccc(F)cc1)N1CCC(CC2CC(c3cccc(Br)c3)=NO2)(C(=O)NCC2CCCCC2)CC1 (stereo not given) | inconclusive: -40.3%
33 | Cc1ccc(C(=O)NCC(c2ccco2)N2CCc3ccccc32)cc1 (stereo not given) | inconclusive: -45.4%
34 | O=C(CCC(=O)c1cccs1)Nc1ncccc1O | inactive: 5.98%
35 | COc1ccc(C(CCNCc2ccccc2F)c2ccc(F)cc2)cc1 (stereo not given) | inconclusive: -38.4%
36 | CCCCN(C)CCNC(=O)c1cc2cc3ccc(OC)cc3nc2o1 | inconclusive: -32.6%
37 | NS(=O)(=O)c1cccc(Nc2nc3ccccc3nc2NS(=O)(=O)c2ccc(Cl)cc2)c1 | inconclusive: -44.6%
38 | Cc1ccc(-n2nc3c(c2NC(=O)c2ccc4c(c2)OCO4)CS(=O)(=O)C3)c(C)c1 | inconclusive: -38.8%
39 | CC12CC3CC(C)(C1)CC(C(=O)NC(=S)N1CCOCC1)(C3)C2 | inactive: -14.9%
40 | O=S(=O)(Cc1ccccc1)N1CCN(Cc2ccc(Br)cc2)CC1 | inconclusive: -35.4%
41 | O=C(NC1CCCc2c1cnn2-c1cc(F)cc(F)c1)c1ccncc1 (stereo not given) | inactive: 24.6%
42 | O=C(Nc1ncc([N+](=O)[O-])s1)c1ccc2c(c1)OCO2 | inactive: -12.5%
43 | Cn1nc(C(=O)NNC(=O)c2ccc(Cl)c(S(N)(=O)=O)c2)c2ccccc2c1=O | inactive: 4.78%
44 | C/C(=N\OC(=O)Nc1ccccc1)c1ccc(C)cc1 | inconclusive: -39.2%

Row | SMILES | activity change
45 | COC(=O)CSC1=NS(=O)(=O)c2ccccc21 | inconclusive: -40.7%
46 | NC(=O)CN1CCN(Cc2ccc3c(c2)OCO3)CC1 | inactive: -20.3%
47 | COc1ccccc1C(=O)COC(=O)c1cc([N+](=O)[O-])ccc1N1CCOCC1 | inconclusive: -30.5%
48 | COCC(C)NS(=O)(=O)c1ccc(NC(=O)c2ccccn2)cc1 (stereo not given) | inactive: 23.1%
49 | Cc1ccc(C)c2[nH]c(=O)c(CCNC(=O)c3cc4ccccc4o3)cc12 | inconclusive: -32.9%
50 | COc1ccc(CNC(=O)C[C@H]2C[C@H](C(=O)N3CCOCC3)[C@@]3(C)c4[nH]c5ccc(Cl)cc5c4CCN3C2=O)cc1OC | inactive: -1.35%
51 | CC12CCCC[C@@H]1CCC1C2CCC2(C)C1CC[C@@]2(O)CNCCO (stereo not given in full) | inconclusive: -35.2%
52 | CC(O)[C@H]1CN=C(N)N1CCCCC1CCCCC1 (stereo not given in full) | inconclusive: -34.8%
53 | COc1cc(NS(=O)(=O)N2CCCC2)cc(OC)c1OC | inconclusive: -46.2%
54 | COC(=O)CN(c1ccc(C)cc1)S(=O)(=O)c1c(C)[nH]c(=O)[nH]c1=O | inconclusive: -42.4%
55 | Cn1cc(S(=O)(=O)N2CCc3ccccc32)cc1C(=O)NC1CCCCC1 | inactive: 30%
56 | Cc1ccc(-c2nn(-c3ccccc3)cc2C(=O)NN2CCN(C)CC2)cc1 | inconclusive: -42.2%
57 | O=C(CCn1cccc1)Nc1ccc(F)cc1 | inconclusive: -30.4%
58 | Cc1ccnc(NC(=O)CCC(=O)N(CC(=O)NC2CCCCC2)Cc2cccs2)c1 | inactive: -1.18%
59 | Cn1nnnc1SCCNCc1ccccc1OCc1ccccc1Cl | active: -50.4%
60 | COc1ccc(C)cc1NC(=O)c1nn(C)c(C(=O)Nc2cc(C)ccc2OC)c1[N+](=O)[O-] | inconclusive: -34.8%
61 | Oc1cccc(-c2nc3c4c(ncn3n2)-c2ccccc2CC42CCCC2)c1 | inconclusive: -35.2%
62 | FC(F)(F)c1cccc(-c2nc3ccccc3n2C(c2ccccc2)c2nc3ccccc3[nH]2)c1 (stereo not given) | inconclusive: -38.8%
63 | CCCc1[nH]n(-c2nc3ccccc3s2)c(=O)c1C=NCCCOC | inconclusive: -32%
64 | COc1cc2c(cc1OC)C(c1ccc(-c3ccc(Cl)cc3Cl)o1)=NCC2 | inconclusive: -37.6%
65 | CC(=O)N[C@@H](Cc1c[nH]c2ccccc12)C(=O)OCC(=O)Nc1ccc(S(=O)(=O)N(C)C)cc1 | inconclusive: -42.3%
66 | Cc1ccccc1OCCn1c(CCNC(=O)C(C)C)nc2ccccc21 | inactive: 11.2%

Row | SMILES | activity change
67 | Cc1cc(C)cc(N(CCC#N)C(=O)CSC2=Nc3ccccc3C3CC=NN23)c1 (stereo not given) | active: -90.6%
68 | CCN1CC(CN(C)Cc2cn(-c3cccc(C)c3)nc2-c2cccc(F)c2)CC1=O (stereo not given) | inconclusive: -48.4%
69 | O=C1c2ccccc2[C@@H]2C[C@@H](O)[C@H](Nc3cccc(C(F)(F)F)c3)CCN12 | inconclusive: -46.9%
70 | Cc1nn2c(C)c(C(=O)Nc3ccccc3)cnc2c1-c1ccccc1 | inconclusive: -35.1%
71 | CC1(C)CC(=O)C(C(C#Cc2ccccc2)C2=C(O)CC(C)(C)CC2=O)=C(O)C1 | active: -99.5%
72 | CCN(C(=O)COC(=O)c1cn(-c2ccccc2)nc1-c1ccccc1)C1CCS(=O)(=O)C1 (stereo not given) | inconclusive: -34.8%
73 | COc1ccc2c(c1)C=C(CN1CCC(CO)(CCc3ccccc3)CC1)CO2 | active: -60.1%
74 | CCOC(=O)N1CCC(NC(=O)c2cc3cc4cc(OC)ccc4nc3o2)CC1 | inconclusive: -34.1%
75 | O=C(C1=C[C@H](c2ccc(Br)cc2)C[C@H](OCCCCO)O1)N1CCN(Cc2ccc3c(c2)OCO3)CC1 | inconclusive: -48.6%
76 | OC(CNCC(c1ccc(Cl)cc1Cl)c1c[nH]c2ccccc12)c1ccccc1 (stereo not given) | active: -103%
77 | Cn1c(C(=O)N2CCN(c3ccc(F)cc3)CC2)cc2ccccc21 | inactive: 5.81%
78 | CC1CCCC(C)N1C(=O)COc1ccc([N+](=O)[O-])cc1Cl (stereo not given) | inactive: -14.8%
79 | O=C(CCCOc1ccc(Br)cc1)Nc1ccc(S(=O)(=O)N2CCOCC2)cc1 | inconclusive: -44.9%
80 | COc1cccc(/C=C(\C(=O)O)c2ccccc2)c1 | inconclusive: -34.5%
81 | COc1cccc(-c2ncc3ccccn23)c1 | inactive: -4.05%
82 | CC(C)c1ccc(C(=O)Nc2ccc(CN3CCOCC3)cc2)cc1 | active: -54.5%
83 | CC(O)(c1cccc(F)c1)c1nc(-c2cccc(C(=O)O)c2)cs1 (stereo not given) | inactive: 19.1%
84 | Cc1ccc(C)c(N(C(=O)Cc2cccs2)C(C(=O)NC2CCCC2)c2ccc(C)o2)c1 (stereo not given) | inactive: 4.49%
85 | CS(=O)(=O)c1ccc(Cl)c(NC(=O)CSc2nc3ccccc3c(=O)n2CCCN2CCOCC2)c1 | inconclusive: -34.7%
